Test results taken from the supplement of paper PMC11417369.
± gives the standard deviation of the averaged measurements. This is one part of the list.

These sequences were tested on PfAP2-I AP2 domain 3 (GST-tagged) (assay: gcPBM binding intensity (ln(normalized median fluorescence intensity)); higher = stronger DNA binding).
Procedure, shortened: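 An Agilent 4 × 180k array of primer-extended double-stranded 36-bp intergenic genomic probes, with negative controls, was incubated for 1 h with GST-tagged P. falciparum DNA-binding domains expressed in E. coli. Alexa488 anti-GST antibody detected bound protein, scanned at 488 nm. Binding intensity is the highest Masliner-normalised natural-log median intensity across replicate spots of either probe orientation.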

| Sequence | gcPBM binding intensity (ln) |
| --- | --- |
| TTTTTACTATAAGGGGAAAAAAAAAAAAATAATATA [XGTACX_negctrl_site279] | 7.78 ± 0.28 |
| TAAACATATACACGTACATGCAACGGATTTTTTTTT [TGCATGCA_site70] | 7.83 ± 0.54 |
| CAAGAAAAGAAACACACACACATATATATATATATA [CACACA_site3881] | 9.32 ± 0.38 |
| ATATAACTTTTAAAAGCATGCAAATATTTACTCAAT [TGCATGCA_site396] | 8.08 ± 0.52 |
| TATATATATATATGTGCACACATAATAAAAAAAAAA [CACACA_site3830] | 10.55 ± 0.035 |
| ATATGATTAATTAAGTGTACGTATTTATAATTATAA [XGTACX_site5783] | 8.11 ± 0.18 |
| ATTACAATTTTAATAGTGCATTTTTATATATTTCTA [GTGCAC_site9918] | 9.43 ± 0.32 |
| TTTATTTATCTTTACGCACACACTTGCATGTACAAA [CACACA_site1118] | 9.455 ± 0.021 |
| TACCTACCTTTACGGAGTACACAATAATAGTTATAA [XGTACX_site6593] | 7.96 ± 0.49 |
| ATATAAAAATAATAGAGTACAAAAAAAAAATGTATA [XGTACX_site7054] | 7.82 ± 0.52 |
| GATGATACGATTATCACACATTTATACTTTCTACAT [CACACA_site5669] | 7.83 ± 0.61 |
| TGTATACATTATTAAGTGCAAGTAGGGAAAAAAAAA | 9.14 ± 0.23 |
| GTATAATATGAACACACACACACACGCAAAAAAAAA [CACACA_site7036] | 8.22 ± 0.46 |
| ACGTTGAAGAAATACACATGCATATTCTATATATAT [TGCATGCA_site76] | 8.61 ± 0.44 |
| TATATTTTTTAAAAAGCATGCAAAAAATAATGATCA [TGCATGCA_site48] | 7.67 ± 0.61 |
| CTCTTATGCTAGGAAGTGCAATAGTATGGGTACCAC | 10.5 ± 0.34 |
| TCATTTTATTTTTTCACACACACATATATATATATA [CACACA_site3333] | 9.17 ± 0.11 |
| TAATATATATAAACATGTACAAATCAAAAACAAAAG [XGTACX_site4076] | 8.23 ± 0.47 |
| TTGCCCATTTCATTAACACACAAATGTTTATATTCT [CACACA_site4569] | 8.04 ± 0.64 |
| AATACCCATTTTAGTACACACTTAAAAAATTATTTT [CACACA_site5611] | 8.24 ± 0.26 |
| TTAACTCAAGAGTGTACACATATATATATATATATA [CACACA_site4334] | 9.39 ± 0.47 |
| ATTCTTTTTTTTTGGAAATGTATTTTTATGTTTTGT [TGCATGCA_negctrl_site426] | 7.54 ± 0.8 |
| ATTTTAGATGAAAAAGCACACAACATATATATATAT [CACACA_site2295] | 9.59 ± 0.12 |

| Sequence | gcPBM binding intensity (ln) |
| --- | --- |
| TTTTTAAAAAAGTAAAGTACAAAAAAAAGGAATATC [XGTACX_site588] | 8.22 ± 0.76 |
| ATTAGTAAGAATCATTGTACATTATAATATGTGGTA [XGTACX_site1341] | 7.83 ± 0.58 |
| TGCTTCCTTAGGAATGTACACACATATATAATATGT [CACACA_site8048] | 7.78 ± 0.47 |
| ACAAGAAAATATATTTGTACATATATAATTTTATTT [XGTACX_site548] | 7.54 ± 0.52 |
| AAAGAAATACAATGATGTACATTTAAAAAAAATTAA [XGTACX_site4324] | 7.72 ± 0.49 |
| TGTAAAACTGAAAAGGGTACATATAAATATATATAT [XGTACX_site69] | 8.65 ± 0.11 |
| ATATATTTATATTTATGTACATATCTTTATTTACGT [XGTACX_site6800] | 7.89 ± 0.45 |
| ATATATATATCGATCTGTACATATATTTATAGACAT [XGTACX_site4236] | 9.1 ± 0.3 |
| ATTTATTTTTATATAACACACAAAGTATAATATAAC [CACACA_site3582] | 7.75 ± 0.46 |
| ATAATTATCATAGGATGTACATATTTATTTTGTATA [XGTACX_site7797] | 7.58 ± 0.28 |
| ATATGTTAAATTATTCGTACGTAAAAAAAAATGGAT [XGTACX_site3465] | 8.38 ± 0.16 |
| ACTATATATTTAATATGTACACATATTTCTGTCGAT [XGTACX_site6878] | 8.08 ± 0.42 |
| TTCCTAAGAATAATCAGTACACATAAAAAGAACATA [XGTACX_site7861] | 7.71 ± 0.61 |
| TAATTTCATCATATTTGTTCCTTCTCAAAATTTTTT [CACACA_negctrl_site217] | 7.62 ± 0.67 |
| GCATTATTTACCACAACACACAAATATTTACCAATC [CACACA_site2669] | 8.52 ± 0.49 |
| CTCTTTTTTTGCAAAAGTACAAATGGGGATATATTT [XGTACX_site5813] | 8.47 ± 0.45 |
| AAAGAAATAAGGTGCACACATATACAGATATATATA [CACACA_site4399] | 10.3 ± 0.4 |
| ATATATTTGATTTACACACTTACAATGTATATAAAT [CACACA_site2993] | 7.84 ± 0.59 |
| ACTCAAACCTTTAGAGTGCAAAAAAAAAAAAAAAAA [GTGCAC_site9952] | 10 ± 0.21 |
| TTGTAAAAATTAATACATATATATATATATATATAT [CACACA_negctrl_site6] | 9.36 ± 0.46 |
| TTAAATAAAAAAATAACACACATATAAATATATATG [CACACA_site3175] | 7.35 ± 0.33 |
| TTACATATTTTTTAACGTACATAAATATATATGTAT [XGTACX_site8406] | 7.96 ± 0.14 |
| TAACTAAGGAATAATACACACAGAAATATAGATTTA [CACACA_site6293] | 7.51 ± 0.68 |

| Sequence | gcPBM binding intensity (ln) |
| --- | --- |
| CAACAAAAATTATTTACACACAAAAGGCAAGGAAAT [CACACA_site1971] | 8.16 ± 0.79 |
| TTTATAAACAAATGAACACACAAACATATATATATA [CACACA_site5713] | 9.15 ± 0.13 |
| TTTTTTCATTAGAAAACATGCAAATGTTTTTCACTT [TGCATGCA_site127] | 7.52 ± 0.83 |
| CTATTATAATATTTTACACACCATGTAAGATATATA [CACACA_site7492] | 8.32 ± 0.63 |
| TTTATTTTATCATTTGCACACGCACCCAGACATAAA [CACACA_site4347] | 9.74 ± 0.25 |
| TATTCATTTATAAGCTGTACACATTAATTTGAGCTA [XGTACX_site3616] | 7.72 ± 0.32 |
| ATTAGGATATATTAAAGTACTAATATAATACATTTT [XGTACX_site7386] | 7.52 ± 0.4 |
| ATATAGTATTAATTTGCATGTCATGTATTAGGTCGA [TGCATGCA_site540] | 7.5 ± 0.69 |
| CTTTTTTTAATATGCACACATATATTTTATATATTA [CACACA_site2077] | 9.54 ± 0.11 |
| TTTTATATTTTTTGTGGTACATTTAGAGAACCAAAA [XGTACX_site1695] | 7.84 ± 0.42 |
| TGTAAGTTGATATAATGTACATGTTTGATTTTTTTT [XGTACX_site7687] | 7.62 ± 0.47 |
| AGATTTATACAAATATGTACACACTAAATATATATT [XGTACX_site864] | 7.88 ± 0.52 |
| AAAAAGGGTATTATTACACACACGTAAATATTAATA [CACACA_site101] | 7.71 ± 0.42 |
| ATATTTTCTTTTTAAAGTACATATTTGATTACAATA [XGTACX_site8414] | 7.66 ± 0.5 |
| GAAAAAAAAGAAAAAACACACATATGATATATTTAT [CACACA_site1524] | 7.28 ± 0.73 |
| AAAGAAAAAAAAAACACACACACACGCATTCAATAT [CACACA_site6169] | 7.92 ± 0.73 |
| ATATATATTTATATATATATATATATATATATGTAT [GTGCAC_negctrl_site220] | 8.585 ± 0.049 |
| CATGTAATATTAAACACACACTCATATAACACAATA [CACACA_site65] | 8.44 ± 0.57 |
| TCTTAGATTATTTATTGTACTTATGCTTAAAAAATT [XGTACX_site3639] | 7.67 ± 0.53 |
| TAGTTATTTATATACACACACATACAGACAAATAAA [CACACA_site7577] | 8.11 ± 0.32 |
| GTCCAATAAGGAAGAGTGCAAAAATTAAATAATATA [GTGCAC_site9751] | 9.905 ± 0.078 |
| TTGTTTCTTAAATTATTTATTTTATATTAAAAAAAA [XGTACX_negctrl_site224] | 7.8 ± 0.36 |
| ATTCGTAGTTTTATGAATTAATATAATAAAAATTAA [XGTACX_negctrl_site181] | 7.42 ± 0.38 |

| Sequence | gcPBM binding intensity (ln) |
| --- | --- |
| TCGTAGTTACTATGGCAAGAAAATAAACGGTCTTGT [GTGCAC_negctrl_site684] | 7.9 ± 0.85 |
| AAGAAAATGAAAAAGTAAAAACATATATTAAATATA [TGCATGCA_negctrl_site123] | 7.41 ± 0.57 |
| ATAGAATAATATTGTAGTACTAAAAATATTCATTTT [XGTACX_site6447] | 7.58 ± 0.35 |
| TCTATATATAAATATAAATATATATATATAATGTTA [TGCATGCA_negctrl_site92] | 7.13 ± 0.071 |
| TAAAAAACAAAACAGGTGCTATATAATTTTCATTTT | 9.79 ± 0.071 |
| TCTTTTTGTTCGTGTACACACATGAAATTTATAAAA [CACACA_site1619] | 9.09 ± 0.31 |
| AAGTATATACATATATGTACACATTGTCAGATAGAA [XGTACX_site1236] | 7.74 ± 0.37 |
| ATTATAAATTAAAATACACACATATATACATAATAT [CACACA_site7337] | 7.66 ± 0.46 |
| ATATATATATATATATGTACATATTTTTAATTATAA [XGTACX_site7444] | 9.46 ± 0.64 |
| CAAAGGGAAATTAACACACACATATATATATATATA [CACACA_site2453] | 9.48 ± 0.45 |
| GTATACACATATATATGTACTTAATTATTTTATGTC [XGTACX_site6707] | 7.88 ± 0.38 |
| AAACATGATTATTATAGTACAATTATAATTATTATA [XGTACX_site2590] | 7.42 ± 0.54 |
| GTCATAAAAACATATACACACTTGAAATATAAAAAT [CACACA_site5315] | 7.89 ± 0.3 |
| TTTATAAAAATATACACACATACAAATATGCATATA [CACACA_site712] | 7.71 ± 0.4 |
| GAAAAAAGGAAATAAAGAAAAAAAAAAATGAAATAT [XGTACX_negctrl_site318] | 7.63 ± 1 |
| TTTCTTTTCTCAGAAATTATTCAAATGAAAAAAAAT [TGCATGCA_negctrl_site44] | 7.53 ± 0.39 |
| TTTATATGTATTAAGTGTACACATATAATCTATCTT [XGTACX_site4922] | 8.04 ± 0.2 |
| TAATAATATATATGAAGTACAATAACTTTTTGTTTT [XGTACX_site292] | 7.61 ± 0.35 |
| GTCAAATTTTTGTGCACACATATATAGTTATTATTA [CACACA_site2241] | 11.2 ± 0.23 |
| AAAAAAAAAAAAAAAACACACACATACACCCAAAAA [CACACA_site7910] | 9.01 ± 0.38 |
